Measured values reported in PubChem BioAssay AID1508624 (National Center for Advancing Translational Sciences (NCATS), 2021).
Screen size: about 48,000 compounds; about 120 (0.25%) were called active. About 4% were inconclusive and are not listed. Calls come from the whole dose curve; as a rule, active = well fitted activation curve with a large enough effect; inconclusive = small, poorly fitted or top-dose-only effect, or another doubt; inactive = no such curve, though single readings can be large or run the other way. Some of the results follow.

Test: Primary qHTS for Identification of Small Molecule Activators of Huntingtin-Antisense Promoter Activity; note: nearly all actives have a fitted effect of over 55% in size
Conditions: HEK293 HTT-AS promoter firefly luciferase reporter (activity 0% = vehicle and -100% = no light), 24 h; series mostly up to 57.5 µM; activity change, positive = activation: at the top concentration
How it was run: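 Quantitative HTS used concentration series of up to 57.5 uM final on HEK293 luciferase reporter cells, 24 h at 37 degrees C. Readout was Dual-Glo firefly luminescence.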

Activity change, positive = activation, inactive:
COc1ccc(N(CC(=O)NCc2ccc(F)cc2)S(=O)(=O)c2c(C)noc2C)cc1 -11.3%
N#Cc1ccc(-c2cccs2)nc1SCc1c(F)cccc1Cl -44.2%
Cc1ccccc1C(=O)N(Cc1ccc(N(C)C)cc1)Cc1ccco1 -23.1%
COc1ccc(OC)c(-c2nc3c(C#N)c[nH]n3c2NC2CCCCC2)c1 -15.4%
CCCN(c1ccc(C(C)C)cc1)S(=O)(=O)c1ccc2c(c1)CCN2C(=O)CC -21.9%
O=C(CCc1nc2cccnc2n1Cc1cccs1)Nc1cccc(C(F)(F)F)c1 -34.2%
O=C(c1ccc(C(F)(F)F)cc1)N1CCC(c2noc(-c3ccc(S(=O)(=O)N4CCCC4)cc3)n2)CC1 -20.8%
NC(=O)c1ccccc1NC(=O)C1CCCN(c2ncnc3onc(-c4ccc(F)cc4)c23)C1 (stereo not given) -11.7%
O=C(c1cccs1)N(Cc1cccnc1)c1nc2c(Cl)cccc2s1 -18.2%
Cc1ccc(NC(=O)CN2C(=O)CCc3cc(S(=O)(=O)N4CCOCC4)ccc32)cc1N(C)C -11.1%
O=C(NC1CCCC1)c1ccc2c(c1)N(Cc1ccc(C(F)(F)F)cc1)C(=O)c1ccccc1S2 -3.58%
Cc1ccccc1Cn1c(=O)n(Cc2ccc3c(c2)OCO3)c(=O)c2oc3ccccc3c21 -13.4%
COCCCNS(=O)(=O)c1cc(-c2onc(C)c2C)ccc1OC -16.9%
COc1ccc(N2CCN(C(=O)CSc3n[nH]c(-c4ccccc4)n3)CC2)cc1 -16.4%
COc1ccc(-c2noc(CCC(=O)N(C)c3ccccc3C)n2)cc1 -25%
CN(C)C(=O)c1ccc(NC(=O)Cn2nnnc2-c2ccccc2F)cc1 -10.8%
COc1ccc(Nc2c3c(nc4ccc(NC(=O)/C=C/c5cc(OC)c(OC)c(OC)c5)cc24)CCCC3)cc1OC -76.5%
O=C(Nc1ccc(-c2nc3cc(NC(=O)c4ccccc4Cl)ccc3o2)cc1)c1ccccc1Cl -21.4%
Cc1ccc2c(CC(=O)Nc3cccc(Cl)c3C)coc2c1 4.89%
Cn1c(=O)n(C/C=C/c2ccccc2)c(=O)c2c1nc1n2CCN1c1ccc(F)cc1 -3.23%
COc1ccc(S(=O)(=O)NCCc2sc(C)nc2C)cc1F -31.8%
CCOC(=O)C1=C(C)NC(C)=C(C(=O)OCC)C1c1ccccc1/C=C/C(=O)OC(C)(C)C -24%
Cc1cccc(OCCCCn2c(C3CC(=O)N(c4ccccc4Cl)C3)nc3ccccc32)c1 (stereo not given) -31%
Cc1ccc(-c2nc3cc(NC(=O)c4cc5ccccc5o4)ccc3o2)cc1 23.1%
CCN1C(=O)c2ccccc2Sc2ccc(NC(=O)COc3ccc(Cl)cc3)cc21 -21.1%
COc1ccc(C(=O)CC2(O)C(=O)Nc3c(C)cccc32)c(OC)c1OC (stereo not given) -11.5%
CCOc1ccc(-n2c(SCC(=O)Nc3cccc(Cl)c3)nc3c(oc4ccccc43)c2=O)cc1 -16.3%
CCOc1ccc(-c2cnc(NCc3ccc(C(F)(F)F)cc3)n2C)cc1 -19.1%
CN1CCN(c2ncc3c(n2)CCN(Cc2cc(Br)cs2)C3)CC1 -17.6%
CN(C)c1ccc(CNC(=O)C2CCCN(S(=O)(=O)c3ccc4c(c3)oc(=O)n4C)C2)cc1 (stereo not given) -11.5%
COc1ccc(-c2ccc3c(N4CCOC[C@H]4C)nc(N4CCOC[C@H]4C)nc3n2)cc1CO -26.1%
Cc1cccc(OCC(=O)NC(Cc2c[nH]c3ccccc23)C(=O)O)c1C (stereo not given) -1.64%
CC1=C(C(=O)Nc2ccc(Cl)cc2)C(c2ccccc2C)n2ncc(C(=O)Nc3ccc(C)cc3)c2N1 (stereo not given) -30.5%
COc1ccc(CCNC(=O)C(=O)NCC(c2ccc3c(c2)OCO3)N2CCOCC2)cc1 (stereo not given) -21.6%
O=C(Nc1cc(F)ccc1F)N1CCC(CN2CCOCC2)CC1 -2.96%
COc1ccc(-n2cc(-c3ccccc3)c3c(NC4CCCCC4)ncnc32)cc1 -29.7%
Cn1c(=O)n(-c2ccc(C(C)(C)C#N)cc2)c2c3cc(-c4cnc5ccccc5c4)ccc3ncc21 -25%
Cc1cc(OCCOCC[N+](C)(C)Cc2ccccc2)ccc1C(C)(C)CC(C)(C)C -49%
CC(NC(=O)c1ccc2c(c1)N(Cc1cccc(F)c1)C(=O)c1ccccc1S2)c1ccccc1 (stereo not given) -21.3%
CCCCN(C)CCNC(=O)c1c(C)oc2ncnc(N3CCOCC3)c12 -9.43%
Cc1cccc(NC(=O)Cn2c(=O)n(CCC(C)C)c(=O)c3cccnc32)c1 -6.99%
Cc1ccc(NC(=O)c2cnn(-c3ccc(C)c(C)c3)c2C2CCN(C(=O)OC(C)(C)C)CC2)c(C)c1 -23.6%
Cc1ccc(-n2nc(C(=O)N3CCN(c4cccc(C(F)(F)F)c4)CC3)c(=O)n(C)c2=O)cc1 -32.4%
Cc1ccc(CNc2ccc(-c3nc(C(C)C)no3)cc2[N+](=O)[O-])cc1 -14.4%
COc1cc(NC(=O)CN2C(=O)C(c3ccc(C)cc3)=NC23CCCCC3)cc(OC)c1 -20.4%
Cc1ccc(-n2c(=O)c3c(c4cc(C)ccc4n3C)n(CC(=O)Nc3c(C)cccc3C)c2=O)cc1 -14.7%
O=C(CCSCCc1ccccn1)Nc1cc(F)ccc1F -6.56%
Cc1cccc(N2CCN(C(=O)c3cc4c(=O)oc5ccccc5c4s3)CC2C)c1 (stereo not given) -27.7%
COc1ccc(CNS(=O)(=O)c2cc3c(cc2C)n(C)c(=O)c(=O)n3C)cc1 -14.3%
COc1cccc(NC(=O)c2nn(-c3ccc(C)cc3)c(=O)n(C)c2=O)c1 -2.1%
CC(C)CN(CC(C)C)C(=O)C1CCCN(S(=O)(=O)c2ccc3c(c2)oc(=O)n3C)C1 (stereo not given) -1.45%
COc1ccc(CCC(C)=O)cc1 -5.55%
Cc1ccc(NS(=O)(=O)c2ccc3c(c2)NC(=O)C(C)C(=O)N3)cc1F (stereo not given) -28.6%
Cc1ccc(NC(=O)CSc2cc(=O)n(C)c3ccc(Cl)cc23)c(Br)c1 -3.93%
CCc1ccc(CNC(=O)c2ccc3nc(SCc4ccc(F)cc4)n(C)c3c2)cc1 -30.6%
CCOc1ccc(C(=O)Nc2cc(NC(=O)c3ccco3)ccc2OC)cc1Br -11.6%
Cc1ccc(CCNC(=O)CCN2N=C(c3ccc(C)cc3)CCC2=O)cc1 -19.2%
COc1ccc(CCC(=O)NCc2ccc3c(c2)CCN3C(=O)c2ccc(F)cc2)cc1 4.45%
Cc1ccsc1CCN1C(=O)N(c2ccccc2)C(=O)C1CC(=O)Nc1ccc(F)cc1 (stereo not given) -25.2%
COc1ccc(-c2nc3cc(NC(=O)Cc4ccc(Cl)cc4)ccc3o2)cc1OC -35.9%
Cc1ccc(Cl)cc1Nc1nc2ccccc2c2nncn12 -9.23%
Cc1cccc(C)c1NC(=O)c1ccc2c(c1)N(Cc1cccc(Cl)c1)C(=O)c1ccccc1S2=O (stereo not given) -20%
CCOC(=O)c1ccc(NC(=O)Cn2nc(SC)c(S(=O)(=O)c3ccc(Cl)cc3)c2N)cc1 -52.4%
CC(C)CC(=O)Nc1nnc(S(=O)(=O)N2CCCCCC2)s1 -7.4%
CCOc1cc(CC(=O)N[C@@H](CC(C)C)c2ccccc2N2CCCCC2)ccc1C(=O)O -18.4%
Cc1ccc(C(=O)N(Cc2sccc2C)C2CCS(=O)(=O)C2)cc1 (stereo not given) -17.4%
Cc1nc(C)c(-c2ccc(SCC(=O)Nc3ccc(Cl)c(Cl)c3)nn2)s1 -31.8%
COc1ccc(OC)c(-n2nnc3c(sc4nc(C)c(Br)c(C)c43)c2=O)c1 -5.44%
COc1ccccc1NC(=O)N1c2ccccc2Sc2ccccc21 -27.6%
CC1=C(C(=O)Nc2ccccc2)C(c2cccnc2)n2nc(SCc3ccccc3F)nc2N1 (stereo not given) -7.99%
O=c1c2sc3ccccc3c2n(Cc2ccccc2F)c(=O)n1Cc1ccccc1 -9.63%
CCC(CC)C(=O)Nc1cc(-c2cccc(C)c2)nn1-c1ccccc1 -3.3%
COc1ccc(Cl)cc1NC(=O)c1cc(C)nc2c1c(C)nn2-c1ccccc1 -8.08%
COc1cccc(CNC(=O)C2CCN(C(=O)N3CCOc4ccc(Cl)cc43)CC2)c1OC -25.1%
Cc1ccc(Cn2c(=O)n(Cc3ccco3)c(=O)c3sc4ccccc4c32)cc1 -16.2%
O=c1c2cnn(-c3ccc(Cl)cc3)c2ncn1Cc1ccc(Cl)cc1Cl -12%
Cc1nc2c(C(=O)NCc3ccccc3)cnn2c(C)c1Cc1ccc(F)cc1 -11%
Cc1cccc(C(=O)Nc2cc3c(cc2N2CCCCC2)n(C)c(=O)c(=O)n3C)c1 -3.64%
CC(=O)N1CCC2(CC1)OC(=O)C(C)=C2C(=O)Nc1cccc(Cl)c1C -15.2%
CCCCC(=O)Nc1cc(C)c(O)c(-c2nc3ncccc3o2)c1 -8.08%
O=C(CC1N=C2c3ccccc3N=C(SCc3ccccc3F)N2C1=O)NCCc1ccccc1 (stereo not given) 8.19%
Cc1nc2c(C(=O)NCc3ccccc3Cl)cnn2c(C)c1Cc1c(F)cccc1Cl -8.37%
CC(=O)N1CCCc2cc(S(=O)(=O)N3CCC(C(=O)NCCC(C)C)CC3)ccc21 -19.3%
O=C(NC1CC(=O)N(c2ccc(F)cc2)C1)c1cc2ccccc2o1 (stereo not given) -7.8%
CN1CCN(C(c2ccccc2)c2sc3nc(-c4ccco4)nn3c2O)CC1 (stereo not given) 9.88%
COc1ccccc1NC(=O)n1ncc2c(C)cccc21 -21.3%
CCOC(=O)c1ccc(NC(=O)C2Cc3ccccc3CN2S(=O)(=O)c2ccc(Cl)cc2)cc1 (stereo not given) -34.3%
O=C(NCC(c1cccs1)S(=O)(=O)c1cccs1)c1ccccc1 (stereo not given) -16.4%
CC(NC(=O)Cn1ncc2c3ccccc3n(Cc3ccc(F)cc3)c2c1=O)c1ccccc1 (stereo not given) -5.08%
COc1ccc(Cl)cc1NS(=O)(=O)c1cc(-c2cc(C)no2)ccc1C -38.8%
Cc1cc(Br)ccc1NC(=O)CCS(=O)(=O)c1cccc2nonc12 -24.3%
CC(=O)c1sc2c(c1C)c(=O)n(-c1ccc(Cl)cc1)c(=O)n2Cc1ccc(Cl)cc1 -15.1%
Cc1cc(C)c(Cn2c(C)c(CNCCCc3ccccc3)c(C(=O)O)c2C)c(C)c1 -11.4%
CCOC(=O)c1c(NC(=O)c2noc3c2CC(C(C)(C)C)CC3)sc2c1CCCC2 (stereo not given) -4.13%
Cc1ccc(C)c(N2CCN(C(=O)CN3C(=O)COc4ccc(S(=O)(=O)N5CCCCCC5)cc43)CC2)c1 -48.7%
